# In PubChem BioAssay (Tox21):
# Values joined by “and” are separate entries in the source; they are usually repeats but may differ in a detail not shown here. Equal values may be shown once. Inconclusive results, whose numbers are uncertain, are shown with a selection of clear calls. For some assays here: Potencies of inconclusive entries are doubtful fits and often do not repeat. Active and inactive are the calls of the source. Unless noted, calls follow the shape of the dose curve; as a rule, active = well fitted curve in the direction sought with a large enough effect in the repeat runs; inconclusive = weak or mixed curves; inactive = no such curve, though single readings can be large; an effect the other way counts as inactive or inconclusive.
# Legend:
# [1] = target: Aryl hydrocarbon receptor (Homo sapiens) (UniProt P35869); experiment: qHTS assay to identify small molecule that activate the aryl hydrocarbon receptor (AhR) signaling pathway (AID 743085); also: nearly all actives have a fitted effect of over 15% in size; also: potency is read from the fitted curve at half-maximal effect;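 as to activation: HG2L7.5c1 human HepG2 liver cells with stably integrated DRE-driven firefly reporter; % is scaled to controls: 0 for no effect and ±100 for the full control effect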
# Outline: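 Luminescence (ONE-Glo) from a dioxin-responsive-element luciferase reporter in HG2L7.5c1 HepG2 cells after 24 hr compound exposure at 37C; viability measured by CellTiter-Fluor fluorescence beforehand.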
# [2] = target: Peroxisome proliferator-activated receptor gamma (Homo sapiens) (UniProt P37231); experiment: qHTS assay to identify small molecule antagonists of the peroxisome proliferator-activated receptor gamma (PPARg) signaling pathway (AID 743191; calls by dose curve; also: nearly all actives have a fitted effect of over 30% in size; also: potency is read from the fitted curve at half-maximal effect; as to ratio activity, negative = inhibition: % is scaled to controls: 0 for no effect and ±100 for the full control effect); details: HEK293H PPARg-UAS-bla, beta-lactamase ratio, antagonist, 17 h; ratio activity, negative = inhibition: at 62.6 µM (top of the series) unless noted
# Outline: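 GeneBLAzer PPARg UAS-bla HEK293H cells carrying a UAS-driven beta-lactamase reporter were plated at 3000 cells/well, preincubated 5 h at 37C, then given compound for 17 h at 37C; LiveBLAzer B/G FRET substrate was read after 1 h at room temperature.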
# [3] = qHTS assay to identify small molecule antagonists of the peroxisome proliferator-activated receptor gamma (PPARg) signaling pathway - cell viability counter screen (AID 743194); details: PPARg-bla HEK293H viability, CellTiter-Glo luminescence, 17 h, co-treated with 50 nM rosiglitazone; activity change, negative = cytotoxicity: at 62.6 µM (top of the series) unless noted; also: nearly all actives have a fitted effect of over 55% in size; also: potency is read from the fitted curve at half-maximal effect
# Outline: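 PPARg-UAS-bla HEK293H cells were plated, rested 5 h at 37 C, then treated with compounds plus rosiglitazone (50 nM final) for 17 h at 37 C; viability was then read by CellTiter-Glo luminescence after 30 min at room temperature.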
# [4] = qHTS assay for small molecule agonists of the antioxidant response element (ARE) signaling pathway (AID 743202; active = well fitted activation curve with a large enough effect in the signal ratio in the repeat runs, not every such curve was filed as active; inconclusive = weak or mixed curves, or effect the other way; inactive = no such curve, though single readings can be large or run the other way; the % refers to the signal ratio; also: potency is read from the fitted curve at half-maximal effect); details: HepG2 ARE-bla reporter, beta-lactamase FRET, 16 h; activation: at 73.3 µM (top of the series) unless noted
# Outline: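 Following a 16 h, 37 C exposure of reporter HepG2 cells (ARE-driven beta-lactamase, 2,000 cells/well) to compounds, FRET substrate was applied for 2 h at room temperature and fluorescence intensity recorded.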
# [5] = target: Peroxisome proliferator-activated receptor delta (Homo sapiens) (UniProt Q03181); experiment: qHTS assay to identify small molecule agonists of the peroxisome proliferator-activated receptor delta (PPARd) signaling pathway (AID 743212; calls by dose curve; also: % is scaled to controls: 0 for no effect and ±100 for the full control effect); details: HEK293H PPARd-UAS-bla, beta-lactamase FRET ratio, 17 h; activation: at 62.6 µM (top of the series) unless noted
# Outline: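 Beta-lactamase reporter read by fluorescence (LiveBLAzer B/G FRET, 2 h, room temperature). Test agents, in DMSO, incubated at 37 C with PPARd-bla HEK293H cells.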
# [6] = target: Bile acid receptor (Homo sapiens) (UniProt Q96RI1); experiment: qHTS assay to identify small molecule antagonists of the farnesoid-X-receptor (FXR) signaling pathway (AID 743217; active = well fitted inhibition curve with a large enough effect in the signal ratio in the repeat runs, not every such curve was filed as active; inconclusive = weak or mixed curves, or effect the other way; inactive = no such curve, though single readings can be large or run the other way; the % refers to the signal ratio; also: potency is read from the fitted curve at half-maximal effect); details: HEK293T FXR-UAS-bla, beta-lactamase ratio, CDCA-stimulated, 16 h; activity change, negative = inhibition: at 62.6 µM (top of the series) unless noted
# Outline: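 Cells carrying a UAS-driven beta-lactamase reporter (GeneBLAzer FXR-UAS-bla HEK 293T) were plated and rested 5 h at 37 °C. Compounds in DMSO were added alongside chenodeoxycholic acid agonist at 50 uM final and left 16 h at 37 °C before FRET substrate readout.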
# [7] = qHTS assay to identify small molecule agonists of the farnesoid-X-receptor (FXR) signaling pathway - cell viability counter screen (AID 743218); details: FXR-bla HEK293T viability, CellTiter-Glo luminescence, 16 h; viability change, negative = cytotoxic: at 62.6 µM (top of the series) unless noted; also: nearly all actives have a fitted effect of over 45% in size; also: potency is read from the fitted curve at half-maximal effect
# Outline: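 Cells were seeded, left 5 h at 37 C and 5% CO2, then dosed with compound in DMSO for 16 h. After the beta-lactamase FRET read, CellTiter-Glo was added and luminescence measured 30 min later.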
# [8] = qHTS assay to identify small molecule antagonists of the farnesoid-X-receptor (FXR) signaling pathway - cell viability counter screen (AID 743221; active = well fitted cell-killing curve with a large enough effect in the repeat runs, not every such curve was filed as active; inconclusive = weak or mixed curves, or effect the other way; inactive = no such curve, though single readings can be large or run the other way; also: potency is read from the fitted curve at half-maximal effect; nearly all actives have a fitted effect of over 50% in size); details: FXR-bla HEK293T viability, CellTiter-Glo luminescence, 16 h; activity change, negative = cytotoxicity: at 62.6 µM (top of the series) unless noted
# Outline: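 Cytotoxicity counter screen run in the FXR-bla reporter wells: HEK 293T cells exposed to compound with 50 uM (final) chenodeoxycholic acid for 16 h, 37 C, then viability measured by CellTiter-Glo luminescence after 30 min, room temperature.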
# [9] = target: Vitamin D3 receptor (Homo sapiens) (UniProt P11473); experiment: qHTS assay to identify small molecule antagonists of the vitamin D receptor (VDR) signaling pathway (AID 743223; active = well fitted inhibition curve with a large enough effect in the signal ratio in the repeat runs, not every such curve was filed as active; inconclusive = weak or mixed curves, or effect the other way; inactive = no such curve, though single readings can be large or run the other way; the % refers to the signal ratio; also: % is scaled to controls: 0 for no effect and ±100 for the full control effect); details: VDR-UAS-bla HEK293T, beta-lactamase FRET ratio, 16 h; activity change, negative = inhibition: at 61 µM (top of the series) unless noted
# Outline: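 Antagonist mode: compound added to VDR-bla cells alongside agonist 1alpha,25-dihydroxyvitamin D3 (3 nM final), incubation 16 h at 37C. Read-out is LiveBLAzer FRET fluorescence, 2 h at room temperature.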
# [10] = qHTS assay to identify small molecule agonists of the vitamin D receptor (VDR) signaling pathway - cell viability counter screen (AID 743224); details: VDR-bla HEK293T viability, CellTiter-Glo luminescence, 16 h; activity change, negative = cytotoxicity: at 62.6 µM (top of the series); also: potency is read from the fitted curve at half-maximal effect; nearly all actives have a fitted effect of over 50% in size
# Outline: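 Cells: VDR-bla, 2,000/well, settled 4 h. Treatment: compounds in DMSO, 16 h, 37C/5% CO2. Readout: CellTiter-Glo luminescence after 30 min RT.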
# [11] = target: Peroxisome proliferator-activated receptor gamma (Homo sapiens) (UniProt P37231); experiment: qHTS assay to identify small molecule agonists of the peroxisome proliferator-activated receptor gamma (PPARg) signaling pathway (AID 743094; active = well fitted activation curve with a large enough effect in the signal ratio in the repeat runs, not every such curve was filed as active; inconclusive = weak or mixed curves, or effect the other way; inactive = no such curve, though single readings can be large or run the other way; the % refers to the signal ratio; also: potency is read from the fitted curve at half-maximal effect); details: HEK293H PPARg-UAS-bla, beta-lactamase FRET ratio, 17 h; activation: at 57 µM (top of the series) unless noted
# Outline: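 Cells from the PPARg UAS-bla HEK293H line are plated and incubated 5 h at 37C. Compounds in DMSO are pinned in and left 17 h at 37C. LiveBLAzer B/G substrate is then added for 1 h at room temperature before fluorescence is measured.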
# [12] = target: Vitamin D3 receptor (Homo sapiens) (UniProt P11473); experiment: qHTS assay to identify small molecule agonists of the vitamin D receptor (VDR) signaling pathway (AID 743222; calls by dose curve; also: potency is read from the fitted curve at half-maximal effect); details: HEK293T VDR-UAS-bla, beta-lactamase FRET ratio, 16 h; activation: at 63.5 µM (top of the series) unless noted
# Outline: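 Cells carrying a VDR-driven beta-lactamase reporter are seeded at 2,000 per well and rested 4 h. Compounds in DMSO are added for 16 h at 37C, and FRET substrate fluorescence is measured after 2 h at room temperature.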
# [13] = qHTS assay to identify small molecule agonists of the peroxisome proliferator-activated receptor delta (PPARd) signaling pathway - cell viability counter screen (AID 743211); details: PPARd-bla HEK293H viability, CellTiter-Glo luminescence, 17 h; activity change, negative = cytotoxicity: at 62.6 µM (top of the series) unless noted; also: nearly all actives have a fitted effect of over 55% in size; also: potency is read from the fitted curve at half-maximal effect
# Outline: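 Viability was measured as CellTiter-Glo luminescence (30 min, room temperature) in the same wells as the beta-lactamase readout. GeneBLAzer PPARd UAS-bla HEK293H cells received compound after 5 h plating and were incubated 17 h at 37 C.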
# [14] = qHTS assay to identify small molecule antagonists of the peroxisome proliferator-activated receptor delta (PPARd) signaling pathway - cell viability counter screen (AID 743213); details: PPARd-bla HEK293H viability, CellTiter-Glo luminescence, 17 h; viability change, negative = cytotoxic: at 62 µM (top of the series) unless noted; also: potency is read from the fitted curve at half-maximal effect; nearly all actives have a fitted effect of over 50% in size
# Outline: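 Viability counter-screen, qHTS format: PPARd-bla HEK293H, L165041 300 nM final, 17 h compound exposure at 37 C, CellTiter-Glo luminescence after 30 min RT.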
# [15] = target: Peroxisome proliferator-activated receptor delta (Homo sapiens) (UniProt Q03181); experiment: qHTS assay to identify small molecule antagonists of the peroxisome proliferator-activated receptor delta (PPARd) signaling pathway (AID 743215; active = well fitted inhibition curve with a large enough effect in the signal ratio in the repeat runs, not every such curve was filed as active; inconclusive = weak or mixed curves, or effect the other way; inactive = no such curve, though single readings can be large or run the other way; the % refers to the signal ratio;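 also: cells stimulated with agonist L165041 at 300 nM final during compound exposure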; also: potency is read from the fitted curve at half-maximal effect); details: HEK293H PPARd-UAS-bla, beta-lactamase FRET ratio, antagonist, 17 h; ratio activity, negative = inhibition: at 62 µM (top of the series) unless noted
# Outline: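 Cells: HEK293H with a UAS-driven beta-lactamase reporter responsive to PPARd. Compounds were co-added with L165041 (300 nM, final) and incubated 17 h at 37 C before a 2 h room-temperature FRET substrate step and fluorescence reading.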
# [16] = qHTS assay for small molecule activators of the heat shock response signaling pathway - cell viability counter screen (AID 743209); details: HSE-bla HeLa viability, CellTiter-Glo luminescence, 5 h; activity change, negative = cytotoxicity: at 62.6 µM (top of the series) unless noted; also: potency is read from the fitted curve at half-maximal effect; nearly all actives have a fitted effect of over 50% in size
# Outline: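 Cytotoxicity counter screen run in parallel with the HSE beta-lactamase reporter, using the same wells. HeLa HSE-bla cells received compound for 5 h at 37 C; ATP-based CellTiter-Glo luminescence was measured after 30 min at room temperature.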
# [17] = qHTS assay for small molecule activators of the heat shock response signaling pathway (AID 743210; active = well fitted activation curve with a large enough effect in the signal ratio in the repeat runs, with a control signal flat, not every such curve was filed as active; inconclusive = weak or mixed curves; the % refers to the signal ratio; also: potency is read from the fitted curve at half-maximal effect); details: HeLa HSE-bla reporter, beta-lactamase ratio, 5 h; activation: at 62.6 µM (top of the series) unless noted
# Outline: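 Heat shock element–beta-lactamase HeLa reporter cells; qHTS with compounds for 5 h at 37 C; detection by FRET substrate fluorescence after 2.5 h at RT.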
# Tags tell the direction and shape of the fitted curve or compound fluorescence and quenching.
# Chain of UniProt P37231 (P37231 whole entry, looked up): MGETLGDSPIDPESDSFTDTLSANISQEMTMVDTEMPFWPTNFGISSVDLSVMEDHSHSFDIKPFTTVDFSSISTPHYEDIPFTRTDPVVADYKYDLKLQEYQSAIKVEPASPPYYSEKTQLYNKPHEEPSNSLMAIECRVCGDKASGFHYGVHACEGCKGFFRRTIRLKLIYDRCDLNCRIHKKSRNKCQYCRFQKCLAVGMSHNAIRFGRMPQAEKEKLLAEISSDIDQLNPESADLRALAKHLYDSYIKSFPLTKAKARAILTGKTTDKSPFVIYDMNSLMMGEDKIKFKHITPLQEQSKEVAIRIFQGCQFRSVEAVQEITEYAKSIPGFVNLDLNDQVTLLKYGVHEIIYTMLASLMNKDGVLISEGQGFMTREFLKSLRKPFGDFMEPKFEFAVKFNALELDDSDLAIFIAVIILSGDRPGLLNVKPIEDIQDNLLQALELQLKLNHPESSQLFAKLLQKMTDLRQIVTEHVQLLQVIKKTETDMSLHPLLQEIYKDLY
# Chain of UniProt P35869 (P35869 whole entry, looked up): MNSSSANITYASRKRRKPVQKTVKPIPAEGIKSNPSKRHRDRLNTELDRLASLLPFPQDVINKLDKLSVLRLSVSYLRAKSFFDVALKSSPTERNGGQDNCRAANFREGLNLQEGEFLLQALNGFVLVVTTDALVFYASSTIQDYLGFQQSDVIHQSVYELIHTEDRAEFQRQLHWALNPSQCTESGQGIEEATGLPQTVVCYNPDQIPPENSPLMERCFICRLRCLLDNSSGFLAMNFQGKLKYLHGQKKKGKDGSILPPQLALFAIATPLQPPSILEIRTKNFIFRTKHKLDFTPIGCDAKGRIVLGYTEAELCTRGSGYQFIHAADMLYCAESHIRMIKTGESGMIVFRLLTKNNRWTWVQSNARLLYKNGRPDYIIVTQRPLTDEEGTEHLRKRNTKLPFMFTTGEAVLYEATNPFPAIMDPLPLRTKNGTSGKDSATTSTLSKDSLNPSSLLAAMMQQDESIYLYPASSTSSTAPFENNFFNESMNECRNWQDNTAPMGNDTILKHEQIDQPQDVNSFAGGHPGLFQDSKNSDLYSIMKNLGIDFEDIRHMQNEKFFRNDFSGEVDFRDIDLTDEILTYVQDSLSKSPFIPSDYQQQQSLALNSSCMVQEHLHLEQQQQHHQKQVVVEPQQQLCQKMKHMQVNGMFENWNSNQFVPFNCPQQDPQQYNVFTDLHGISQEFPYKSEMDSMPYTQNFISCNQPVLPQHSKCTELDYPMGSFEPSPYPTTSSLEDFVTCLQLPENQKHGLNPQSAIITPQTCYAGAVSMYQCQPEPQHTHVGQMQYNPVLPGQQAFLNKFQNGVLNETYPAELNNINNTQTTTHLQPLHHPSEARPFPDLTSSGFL
# Chain of UniProt Q96RI1 (Q96RI1 whole entry, looked up): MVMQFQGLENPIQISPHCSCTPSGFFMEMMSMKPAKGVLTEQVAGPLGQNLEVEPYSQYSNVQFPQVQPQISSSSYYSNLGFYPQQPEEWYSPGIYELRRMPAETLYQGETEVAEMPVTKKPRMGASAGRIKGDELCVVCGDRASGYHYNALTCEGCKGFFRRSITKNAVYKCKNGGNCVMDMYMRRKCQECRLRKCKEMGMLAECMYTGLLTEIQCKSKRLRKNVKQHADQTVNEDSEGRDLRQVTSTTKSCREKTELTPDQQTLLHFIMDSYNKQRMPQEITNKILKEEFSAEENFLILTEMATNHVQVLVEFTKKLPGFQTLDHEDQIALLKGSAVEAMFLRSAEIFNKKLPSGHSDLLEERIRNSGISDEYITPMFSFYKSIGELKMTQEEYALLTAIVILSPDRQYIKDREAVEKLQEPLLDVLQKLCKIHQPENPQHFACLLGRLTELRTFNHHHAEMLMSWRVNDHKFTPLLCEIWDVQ
# Chain of UniProt Q03181 (Q03181 whole entry, looked up): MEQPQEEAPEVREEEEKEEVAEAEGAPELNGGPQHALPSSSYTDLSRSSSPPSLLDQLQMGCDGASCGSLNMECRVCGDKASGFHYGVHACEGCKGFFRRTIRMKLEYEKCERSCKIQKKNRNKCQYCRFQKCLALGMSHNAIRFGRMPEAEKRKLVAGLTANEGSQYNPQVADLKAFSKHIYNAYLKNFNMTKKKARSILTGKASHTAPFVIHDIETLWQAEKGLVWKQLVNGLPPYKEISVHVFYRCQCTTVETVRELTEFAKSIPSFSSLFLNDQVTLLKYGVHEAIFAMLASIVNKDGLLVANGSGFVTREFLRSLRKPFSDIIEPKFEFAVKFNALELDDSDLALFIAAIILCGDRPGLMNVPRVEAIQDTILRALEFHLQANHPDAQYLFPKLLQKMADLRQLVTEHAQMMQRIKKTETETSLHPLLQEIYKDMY
# Chain of UniProt P11473 (P11473 whole entry, looked up): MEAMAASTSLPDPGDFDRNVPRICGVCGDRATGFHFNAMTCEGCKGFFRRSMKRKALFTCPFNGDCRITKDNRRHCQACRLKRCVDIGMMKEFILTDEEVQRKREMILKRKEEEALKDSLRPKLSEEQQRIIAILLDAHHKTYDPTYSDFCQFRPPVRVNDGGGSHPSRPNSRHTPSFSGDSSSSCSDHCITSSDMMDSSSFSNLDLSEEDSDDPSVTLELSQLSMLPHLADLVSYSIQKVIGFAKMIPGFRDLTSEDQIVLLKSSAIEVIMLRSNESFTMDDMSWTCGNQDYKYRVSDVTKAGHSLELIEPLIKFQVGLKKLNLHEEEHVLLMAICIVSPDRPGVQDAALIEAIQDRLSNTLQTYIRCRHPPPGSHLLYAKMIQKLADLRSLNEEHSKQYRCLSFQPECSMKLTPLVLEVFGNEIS
smiles,measurement,setting,value
Clc1ccc(Nc2nnc(Cc3ccncc3)c3ccccc23)cc1,Potency,[1],active: 1.5 µM and active: 841 nM
same,Potency,[2],inconclusive: 9.44 µM [inhibitor]
same,Potency,[3],"inconclusive: 18.8 µM [rising, partial curve]"
same,Potency,[4],active: 21.1 µM
same,activation,[5],inconclusive: -12.7%
same,Potency,[6],"inconclusive: 29.8 µM [inhibitor, single point]"
same,Potency,[7],"inconclusive: 21.1 µM [rising, partial curve, poor fit]"
same,Potency,[8],"inconclusive: 21.1 µM [rising, partial curve]"
same,Potency,[9],inactive
same,Potency,[10],"inconclusive: 33.5 µM [rising, partial curve, poor fit]"
O=C(O)c1cccnc1C(=O)O,Potency,[1],inactive
same,Potency,[2],inactive
same,Potency,[3],inactive
NCCc1ccc(O)c(O)c1,Potency,[1],"inconclusive: 48.7 µM [activator, partial curve]"
same,Potency,[2],inactive
same,Potency,[4],active: 109 nM and active: 376 nM
same,Potency,[6],inactive
CCCCC(CC)COP(=O)(O)O (configuration not stated),Potency,[1],"inconclusive: 69.7 µM [activator, single point]"
same,Potency,[11],"inconclusive: 25 µM [rising, single point]"
same,Potency,[2],inconclusive: 49.8 µM [partial curve]
same,Potency,[4],"inconclusive: 24.7 µM [rising, full curve, poor fit]"
same,Potency,[6],"inconclusive: 55.9 µM [inhibitor, single point]"
same,Potency,[8],"inconclusive: 22.2 µM [falling, partial curve, poor fit]"
same,Potency,[12],inactive
same,"activity change, negative = inhibition",[9],inconclusive: 8.91% [at 78.8 µM]
CCCCCCCCCCCCCCCC,Potency,[1],inactive
same,Potency,[2],inactive
same,Potency,[4],"inconclusive: 34.4 µM [rising, partial curve, poor fit]"
CC(C)N=C(N)/N=C(\N)Nc1ccc(Cl)cc1,Potency,[1],inactive
same,Potency,[2],"inconclusive: 18.8 µM [inhibitor, partial curve, poor fit]"
same,Potency,[3],inactive
same,Potency,[4],"inconclusive: 10.6 µM [falling, partial curve, poor fit]"
same,Potency,[13],"inconclusive: 16.8 µM [cytotoxic, partial curve]"
same,Potency,[14],active: 11.9 µM
same,"ratio activity, negative = inhibition",[15],inconclusive: -21.6%
same,Potency,[6],inactive
same,Potency,[7],"inconclusive: 23.7 µM [cytotoxic, partial curve, poor fit]"
same,Potency,[8],"inconclusive: 23.7 µM [falling, partial curve, poor fit]"
same,"activity change, negative = inhibition",[9],inconclusive: 1.16%
CC(C)(O)c1ccc(CNC(=O)c2cccnc2Oc2ccc3nonc3c2)cc1,Potency,[1],inactive
same,activation,[11],inconclusive: -13%
same,"ratio activity, negative = inhibition",[2],inconclusive: -26.4%
same,Potency,[4],"inconclusive: 27.3 µM [rising, partial curve, poor fit]"
same,Potency,[7],inactive
same,Potency,[12],"inconclusive: 54.9 µM [rising, partial curve, poor fit]"
same,Potency,[9],inactive
NC(=O)C(=O)N/N=C/c1ccc([N+](=O)[O-])o1,Potency,[1],"inconclusive: 29.8 µM [activator, partial curve]"
same,"ratio activity, negative = inhibition",[2],inconclusive: 3.61%
same,Potency,[4],active: 29.8 µM
same,Potency,[16],"inconclusive: 33.5 µM [cytotoxic, single point]"
same,Potency,[17],inconclusive: 31.6 µM
same,Potency,[15],inactive
CCNc1nc(NC(C)CC)nc(OC)n1 (configuration not stated),Potency,[1],"inconclusive: 61.1 µM [activator, partial curve, poor fit]"
same,Potency,[2],inactive
same,Potency,[4],"inconclusive: 68.6 µM [rising, single point]"
same,Potency,[16],"inconclusive: 61.6 µM [cytotoxic, single point]"
same,Potency,[17],"inconclusive: 54.9 µM [activator, single point]"
same,Potency,[13],inactive
same,Potency,[14],"inconclusive: 61.6 µM [cytotoxic, single point]"
same,Potency,[15],inconclusive: 61.6 µM [single point]
same,"activity change, negative = inhibition",[6],inconclusive: -5.43%
same,Potency,[10],"inconclusive: 54.9 µM [cytotoxic, single point]"
